The supplement of paper PMC10441789
This is one part of the list. Antibody binding of pooled human sera (four to six donors per pool; dilution not stated) to peptides of the Trypanosoma cruzi antigen TSSA on microarrays. Quantile-normalised fluorescence in arbitrary units, mean of duplicate arrays; higher = more binding. No active / inactive call. The uninfected pools are read here as the healthy donors of the same country. The strongest signals lie near the top of the scale (about 60,000).

test system: pooled sera of uninfected people, Colombia; test: antibody binding signal (normalised fluorescence) (arbitrary fluorescence units); higher = stronger serum antibody binding to peptide
Procedure: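 Microarray of 15-residue peptides over residues 30-55 of Trypanosoma cruzi TSSAII, each with 1 to 10 substitutions at naturally variable positions, probed with one serum pool per country.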

| Sequence | antibody binding signal |
| --- | --- |
| TDKKAATGEAPSPPG | 481 |
| KDNKPATGETPSPPG | 268 |
| GTENKAAAGGAPSPP | 328 |
| KTAAGETPSPPGASS | 150 |
| KDNKAATGEAPSQSG | 190 |
| PSGTDKKAATGEAPS | 564 |
| TEKKAAAGGTPSPSG | 208 |
| GTENKTATGEAPSQS | 194 |
| GKDNKTAAGETPSPP | 291 |
| PPSGTDNKPAAGGAP | 994 |
| PPSGTENKPATGETP | 419 |
| DKKAATGETPSPSGA | 835 |
| KDKKAAAGGAPSQPG | 99 |
| TSSTPPSGTDNKTAA | 426 |
| TPPSGKENKTATGGT | 618 |
| ENKPAAGGAPSQSGA | 146 |
| DKKPAAGGTPSQSGA | 193 |
| ENKAAAGETPSQSGA | 179 |
| GKDKKAAAGGAPSPS | 95.3 |
| GKDKKPATGEAPSQS | 192 |

| Sequence | antibody binding signal |
| --- | --- |
| GKENKPATGETPSPS | 250 |
| GKDNKAATGGAPSQS | 117 |
| TDNKAATGGTPSPSG | 412 |
| SGKENKPATGGTPSQ | 209 |
| KAAAGGAPSPPGASS | 123 |
| ENKAAAGETPSPPGA | 86.4 |
| PSGKDNKPATGGTPS | 130 |
| PSGTEKKAATGETPS | 629 |
| KDNKAAAGEAPSPSG | 164 |
| SGKEKKPATGGTPSP | 197 |
| SGKDNKAATGGTPSP | 393 |
| NKAAAGETPSQSGAS | 480 |
| PSGTEKKAATGGTPS | 834 |
| TENKTAAGGTPSPPG | 305 |
| GKEKKAATGETPSQP | 196 |
| GKDKKPATGGTPSQP | 90.9 |
| KDNKAATGETPSQPG | 261 |
| EKKTATGEAPSQSGA | 93.9 |
| TENKPATGEAPSQSG | 119 |
| EKKPAAGETPSPPGA | 138 |
